This is one part of the list.

In the experiment the test system is PfHDP1 homeodomain (GST-tagged). In words: gcPBM binding intensity (ln(normalized median fluorescence intensity)); higher = stronger DNA binding. An outline of the steps:
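Plasmodium falciparum DNA-binding domains carrying a GST tag were expressed in E. coli and applied for 1 h, at about 25 μg on average, to an Agilent 4 × 180k array. The array held primer-extended double-stranded 36-bp intergenic genomic probes together with negative controls, and binding took place in 1× PBS with 1% milk, 0.2 mg/ml BSA, 0.5% salmon testes DNA and 0.03% Triton X-100. An Alexa488 anti-GST antibody detected bound protein, and the array was scanned at 488 nm. Binding intensity is taken as the highest Masliner-normalised natural-log median intensity across replicate spots of either probe orientation.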
As to “TTGCTCACAAGAAGCACACAAAAAAAGAAAAAAAAA [CACACA_site4047]”, the “gcPBM binding intensity (ln)” value came out at 6.2.

As for “ATATCCTTAAAAGATACACACATATGAATATTTTGT [CACACA_site3847]”, the “gcPBM binding intensity (ln)” value came to 6.39.

As to “TTTATACTTGTAAATGCACACATAAGATGCGACTAA [CACACA_site8662]”, the “gcPBM binding intensity (ln)” value was determined as 8.44.

For “GTTTGTAAATATTTTACACACATATATATATATATA [CACACA_site1075]”, the “gcPBM binding intensity (ln)” value was 9.32.

For TTTTTAATTTATTGTGTGCACACAACTATGAGTTTT, the “gcPBM binding intensity (ln)” value amounted to 10.3.

For the sequence “ATATGATATATATTCGGTACACATATATATAAAGAG [XGTACX_site430]”, the “gcPBM binding intensity (ln)” value came to 6.82.

As to “ATTTAAATAATATTCACACACAAAATTATATTTTAA [CACACA_site219]”, the “gcPBM binding intensity (ln)” value was 6.43.

For “AAGTTTTCTTAAAATTGTACTTTTCAAAAATAATCT [XGTACX_site277]”, the “gcPBM binding intensity (ln)” value worked out at 5.83.

On to AATATATATATTAGAGTGCACATAATTATTTGCTAA, for which the “gcPBM binding intensity (ln)” value amounted to 8.88.

For the sequence “TATGTCAAATATATATGTACACAAATATACTATTAA [XGTACX_site2643]”, the “gcPBM binding intensity (ln)” value is 6.26.

As for “ATAATCACAAATAATTGTACATTTTGTTATATATAT [XGTACX_site7704]”, the “gcPBM binding intensity (ln)” value is 6.45.

Take “AAAAATTTCATATTCACACACAAAAAAAAAAAATAT [CACACA_site1592]”: the “gcPBM binding intensity (ln)” value came out at 6.75.

On to “TGATATATATATATATATATAACACACGCAAAAAAA [TGCATGCA_negctrl_site240]”, for which the “gcPBM binding intensity (ln)” value came out at 6.95.

On to “GATTTAGTTATTTAAACATGCAATTTATATAGAATT [TGCATGCA_site47]”, for which the “gcPBM binding intensity (ln)” value worked out at 6.88.

For the sequence “CAACATTCGTATATCACACATTTGCATGTTGTCAAT [CACACA_site4470]”, the “gcPBM binding intensity (ln)” value is 6.66.

With “TATTTATACATACATACACACATATAGATTTATATT [CACACA_site7851]”, the “gcPBM binding intensity (ln)” value was found to be 6.85.

As for “AAAACTTGTCAGAATGGACACACGAATTAAAGGCCT [CACACA_site1215]”, the “gcPBM binding intensity (ln)” value is 6.37.

For the sequence “TTATTTTTTATTATGTGTACATAACATCGCGATACA [XGTACX_site4359]”, the “gcPBM binding intensity (ln)” value turned out to be 7.01.

As to “ATATATATATATATATGTACACATTAATGTTTTTTT [XGTACX_site167]”, the “gcPBM binding intensity (ln)” value came to 9.36.

For “TCGTATATGGATTTTGCACACAATTATAATTTAAAT [CACACA_site868]”, the “gcPBM binding intensity (ln)” value was determined as 10.8.

As for “TATCCCTTAGAATACACACCCATATGAGCGTGAACT [CACACA_site2951]”, the “gcPBM binding intensity (ln)” value turned out to be 6.58.

In the case of “TATATATTTTAAAATAGTACATATTATATAACCCAT [XGTACX_site2194]”, the “gcPBM binding intensity (ln)” value came to 7.04.

Turning to “AATAAAAATTGGTAGGCACACATGGAACTATTAAAA [CACACA_site1257]”, the “gcPBM binding intensity (ln)” value worked out at 6.75.

Consider “TATAAAAGGTAAGAGTGTACAAGTAAAAAATTTTTA [XGTACX_site771]”, for which the “gcPBM binding intensity (ln)” value came out at 6.87.

With “ATGAACTATATTAAATCACACATTATCATTTTATAT [CACACA_site4989]”, the “gcPBM binding intensity (ln)” value is 6.47.

Turning to “TATTTTTTTTTTTAATGTACAAACAAATTATGTTGG [XGTACX_site2873]”, the “gcPBM binding intensity (ln)” value was 6.48.

Consider “ATTTTTTTTATGAGGTGTACTCATATAATAACTACA [XGTACX_site5074]”, for which the “gcPBM binding intensity (ln)” value is 6.39.

Regarding “TTTTCTAAAGTAAGTTAAGATATGCAAAAAAAAGAA [GTGCAC_negctrl_site242]”, the “gcPBM binding intensity (ln)” value came out at 7.56.

Take “TTTTTTTTTTGATGCACACACCTGAACGAGTTAATA [CACACA_site4329]”: the “gcPBM binding intensity (ln)” value was determined as 9.18.

For the sequence “CATACAGATGGACACACACACACACCCACAGACAAA [CACACA_site4431]”, the “gcPBM binding intensity (ln)” value was 6.72.

Regarding “TCGTGAATGATTTAAGTACACACCGGTATTTATTCA [CACACA_site1564]”, the “gcPBM binding intensity (ln)” value amounted to 6.12.

Take “GCATAAACGGATAATTAATTATATTATATTATATCA [CACACA_negctrl_site1519]”: the “gcPBM binding intensity (ln)” value was 6.37.

Regarding “TTATCCTTGTAACAATGTACACATTATTTAATACTT [XGTACX_site1830]”, the “gcPBM binding intensity (ln)” value stood at 6.74.

“TATTGTTGTCTTTACACATGCAACAAAAGAAGAAAA [TGCATGCA_site911]”: the “gcPBM binding intensity (ln)” value was 7.13.

In the case of “ATTTATTTATATATATTATTTGTTTTAATTTACTTA [XGTACX_negctrl_site246]”, the “gcPBM binding intensity (ln)” value amounted to 6.33.

For the sequence TGTTTTATTTAGAAGGTGCACATTAATATTAAATAA, the “gcPBM binding intensity (ln)” value stood at 9.73.

In the case of “ATATGCATTTTTATACGTACATATTTCTTTTCGTTA [XGTACX_site1497]”, the “gcPBM binding intensity (ln)” value was 7.04.

Turning to “CATATTTTTATGAGATGTACAATAAGAAATATGTAA [XGTACX_site2389]”, the “gcPBM binding intensity (ln)” value stood at 6.72.

In the case of “ACAAAAGGGGAATACACACACATATATAAATAAATA [CACACA_site7111]”, the “gcPBM binding intensity (ln)” value was 7.01.

“AACAGGTCATAATTTACACACTATATATCTTATTAT [CACACA_site6461]”: the “gcPBM binding intensity (ln)” value is 7.24.

With “TTCATAAGAAGGAACTGTACATATTTTTCATTTTTT [XGTACX_site6770]”, the “gcPBM binding intensity (ln)” value turned out to be 6.1.

On to “TTATATGTATATATATGTATATATATATATATATAG [TGCATGCA_negctrl_site461]”, for which the “gcPBM binding intensity (ln)” value came to 6.94.

With “TACAATCTTTCATTATGTACTTAACATTTTTTCTGT [XGTACX_site8752]”, the “gcPBM binding intensity (ln)” value worked out at 6.68.

As for “TGTATACCTTAATATACACACATACAGATATATATA [CACACA_site4860]”, the “gcPBM binding intensity (ln)” value worked out at 6.46.

For “CGATTTTTTTTTTATTGTACTTGCTCGCATGCAATA [XGTACX_site4727]”, the “gcPBM binding intensity (ln)” value stood at 6.5.
